The densities may have been worked out from excess volumes.
Test: xn = mol fraction of the nth substance listed
Settings: 100 kPa

COCCCC[n+]1ccn(C)c1.[Cl-] + O
mass density (288.15 K, x1 = 0.8301): 1124.9 kg/m3
mass density (288.15 K, x1 = 0.8593): 1125.2 kg/m3
mass density (288.15 K, x1 = 0.886): 1125.5 kg/m3
mass density (288.15 K, x1 = 0.9141): 1125.8 kg/m3
mass density (293.15 K, x1 = 0.8593): 1122.2 kg/m3
mass density (293.15 K, x1 = 0.886): 1122.5 kg/m3
mass density (293.15 K, x1 = 0.9141): 1122.9 kg/m3
mass density (293.15 K, x1 = 0.9501): 1123.3 kg/m3
mass density (298.15 K, x1 = 0.8301): 1118.8 kg/m3
mass density (298.15 K, x1 = 0.8593): 1119.2 kg/m3
mass density (298.15 K, x1 = 0.886): 1119.5 kg/m3
mass density (298.15 K, x1 = 0.9141): 1119.9 kg/m3
mass density (298.15 K, x1 = 0.9501): 1120.3 kg/m3
mass density (303.15 K, x1 = 0.8593): 1116.2 kg/m3
mass density (303.15 K, x1 = 0.9141): 1116.9 kg/m3
mass density (303.15 K, x1 = 0.9501): 1117.3 kg/m3
mass density (308.15 K, x1 = 0.8301): 1112.8 kg/m3
mass density (308.15 K, x1 = 0.886): 1113.5 kg/m3
mass density (308.15 K, x1 = 0.9141): 1113.9 kg/m3
mass density (308.15 K, x1 = 0.9501): 1114.3 kg/m3
mass density (313.15 K, x1 = 0.8301): 1109.8 kg/m3
mass density (313.15 K, x1 = 0.9501): 1111.3 kg/m3
mass density (318.15 K, x1 = 0.8301): 1106.8 kg/m3
mass density (318.15 K, x1 = 0.886): 1107.5 kg/m3
mass density (318.15 K, x1 = 0.9141): 1107.8 kg/m3
mass density (318.15 K, x1 = 0.9501): 1108.3 kg/m3
